# Measured values as given in the supplement of paper PMC4723716.
# ± gives the uncertainty stated by the source. Whole data set: some 9,900 compounds, median “viability index relative to DMSO control” near 1, cut for the lowest 2% near 0.85. The list shows a part of the results.
# Tested on: Plasmodium falciparum NF54 stage V gametocytes
# Assay: viability index relative to DMSO control (fraction); higher = less gametocyte killing
# Conditions: 2.5 µM, library set: Broad Institute DOS, incubation time: 72 h
# How it was run: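 In 1,536-well plates, 10 µl of serum-free medium holding P. falciparum NF54 stage V gametocytes (0.75% gametocytemia, 1.25% hematocrit) received compound at 2.5 µM for 72 hr at 37°C in low oxygen. After one to two hours with 3 µl of 2.5 µM MitoTracker Red CMXRos containing 0.13% saponin, red particles of 20–70 µm2 were counted in a single field per well. Viability index is reported as the particle count over the plate mean of wells treated with solvent only.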
row,SMILES,viability index
1,Cc1noc(C)c1S(=O)(=O)N(C)C[C@@H]1OCc2cnnn2CCCC(=O)N([C@@H](C)CO)C[C@H]1C,0.975 ± 0.1
2,C[C@H]1C/C=C/C[C@@H](c2ccccc2)NC(=O)[C@H](C)N(C)C(=O)c2ccccc2O1.C[C@H]1C/C=C\C[C@@H](c2ccccc2)NC(=O)[C@H](C)N(C)C(=O)c2ccccc2O1,1.04 ± 0.0069
3,C[C@H](CO)N1C[C@H](C)[C@@H](CN(C)S(C)(=O)=O)OCCCC[C@H](C)Oc2ccc(NC(=O)NC3CCCCC3)cc2C1=O,1.11 ± 0.13
4,COc1cccc(CN2C[C@]3(CCN(C)CC3)c3c([nH]c4cc(OC)ccc34)[C@H]2CO)c1,0.989 ± 0.14
5,Cc1ccccc1S(=O)(=O)N1CCCCN2[C@H](CO)[C@H](c3ccc(C#CCN(C)C)cc3)[C@@H]2C1,1.01 ± 0.14
6,CC(=O)N1Cc2cc(C(=O)NCC(F)(F)F)nc(-c3cccc(-c4cccnc4)c3)c2[C@@H]1CCO,1.02 ± 0.074
7,O=C(Cc1ccncc1)NCC[C@@H]1CC[C@H](NS(=O)(=O)c2ccccc2Cl)[C@H](CO)O1,1.1 ± 0.1
8,COc1cccc(S(=O)(=O)Nc2ccc3c(c2)C(=O)N(C)C[C@@H](OC)[C@@H](C)CN(Cc2ccccc2F)[C@H](C)CO3)c1,1.016 ± 0.0036
9,CCS(=O)(=O)N1C[C@@]2(C1)CN([C@H](CO)c1c2c2ccc(OC)cc2n1C)S(=O)(=O)c1ccccc1,1.07 ± 0.054
10,O=C(Nc1cccc(F)c1)N1CCCCN2[C@H](C1)[C@H](c1ccc(C#Cc3cccnc3)cc1)[C@@H]2CO,0.836 ± 0.036
11,CCN(C[C@@H]1[C@@H](c2ccccc2)[C@@H](CO)N1C(C)=O)C(=O)NC1CCCC1,1.008 ± 0.0044
12,CCS(=O)(=O)N1C[C@@]2(C1)CN([C@@H](CO)c1c2c2ccc(OC)cc2n1C)C(=O)NC(C)C,1.02 ± 0.041
13,C[C@H](CO)N1C[C@H](C)[C@@H](CN(C)C(=O)CCC(F)(F)F)OCc2cn(nn2)CCCC1=O,1.07 ± 0.014
14,CN(C)C(=O)c1cccc(-c2ccc([C@@H]3[C@@H]4CN(S(=O)(=O)c5cccc(Cl)c5)C[C@H]3N4)cc2)c1,1.08 ± 0.093
15,CO[C@H]1CN(C)C(=O)c2cc(NC(=O)c3cnccn3)ccc2OC[C@@H](C)NC[C@@H]1C,1.09 ± 0.059
16,CCC(=O)Nc1ccc2c(c1)C(=O)N(C)C[C@H](OC)[C@H](C)CN(Cc1nccs1)[C@H](C)CO2,1.08 ± 0.086
17,C[C@@H]1CCCCO[C@@H](CN(C)S(=O)(=O)c2cn(C)cn2)[C@@H](C)CN([C@@H](C)CO)C(=O)c2cc(NC(=O)Nc3cccc4ccccc34)ccc2O1,1.04 ± 0.069
18,CCCNC(=O)N1[C@H](CO)[C@@H](c2ccccc2C2=CCCCC2)[C@@H]1C#N,1.08 ± 0.094
19,O=C(C1CCOCC1)N1CC(=O)N2[C@H](C1)[C@H](c1ccc(/C=C/c3ccccc3)cc1)[C@@H]2CO,1.08 ± 0.043
20,O=C(C[C@H]1CC[C@H]2[C@@H](COC[C@H](O)CN2C(=O)Nc2ccc(F)cc2)O1)NC1CCC1,1.07 ± 0.088
21,O=C(O)C[C@H]1C=C[C@@H](NC(=O)Nc2cc(F)ccc2F)[C@@H](CO)O1,0.919 ± 0.095
22,O=C(Nc1ccccc1F)N1CC(=O)N2[C@H](C1)[C@@H](c1ccc(-c3cccnc3)cc1)[C@@H]2CO,1.06 ± 0.03
23,COc1cccc(-c2ccc([C@H]3[C@@H]4CN(Cc5ccccn5)C[C@H]3N4)cc2)c1,1.01 ± 0.0072

row,SMILES,viability index
1,COc1ccc(CNC(=O)N(C)C[C@H]2OCc3ccccc3-c3c(n(C)c4ccccc34)C(=O)N([C@@H](C)CO)C[C@H]2C)cc1,0.954 ± 0.053
2,COCC(=O)Nc1ccc2c(c1)[C@H]1C[C@H](CC(=O)N3CCOCC3)O[C@H](CO)[C@H]1O2,1.11 ± 0.013
3,Cc1ccccc1-c1ccc([C@H]2[C@@H]3CN(C(=O)c4ccc(F)cc4)C[C@H]2N3)cc1,1.01 ± 0.12
4,COc1ccc(C#Cc2ccc3c(c2)[C@@H]2[C@@H](CCN2S(=O)(=O)c2ccccc2C)[C@@H](CO)N3C)cc1,1.09 ± 0.027
5,C[C@@H]1CN([C@@H](C)CO)S(=O)(=O)c2ccc(-c3cncnc3)cc2O[C@H]1CN(C)C(=O)NC1CCCC1,1.08 ± 0.13
6,N#C[C@H]1[C@@H](c2ccccc2-c2cccc(F)c2)[C@H](CO)N1C(=O)c1cccnc1,1.1 ± 0.092
7,Cc1noc(C)c1NC(=O)Nc1ccc2c(c1)C(=O)N(C)[C@@H]1CC[C@@H](CC(=O)N[C@@H]3CCN(Cc4ccccc4)C3)O[C@@H]1CO2,1.14 ± 0.018
8,CO[C@H]1CC[C@@H]2CCOc3c(C#N)cccc3C(=O)N(C)C[C@@H](OC)[C@H](C)C(=O)N(C)C[C@@H]1O2,1.03 ± 0.059
9,C[C@H](O)C#Cc1ccc([C@@H]2[C@@H](CO)N3CCCCN(CC4CC4)C[C@H]23)cc1,1.02 ± 0.11
10,C/C=C/c1ccc([C@H]2[C@H]3CNC[C@@H]2N3S(=O)(=O)c2ccc(Cl)cc2)cc1,1.12 ± 0.038
11,CC(C)(C)[S@](=O)N1Cc2cc(C(=O)NCC(F)(F)F)nc(-c3cccc(-c4cccc(F)c4)c3)c2[C@@H]1CCO,1.02 ± 0.025
12,O=C(C[C@H]1CC[C@H]2[C@@H](COC[C@H](O)CN2S(=O)(=O)c2cccc(Cl)c2)O1)N1CCOCC1,1.03 ± 0.067
13,CN(C)C(=O)c1ccc(-c2ccccc2[C@H]2[C@@H](CO)N(C(=O)C3CC3)[C@H]2C#N)cc1,0.998 ± 0.065
14,CO[C@@H]1CN(C)C(=O)c2cc(NC(C)=O)ccc2OC[C@@H](C)N(S(C)(=O)=O)C[C@@H]1C,1.03 ± 0.047
15,O=C(C[C@H]1CC[C@@H](NC(=O)c2ccc3c(c2)OCO3)[C@H](CO)O1)NCc1ccc(Oc2ccccc2)cc1,1.14 ± 0.039
16,COc1ccc(NC(=O)N(C)C[C@H]2OCCCC[C@H](C)Oc3ccc(NC(=O)c4ccncc4)cc3C(=O)N([C@@H](C)CO)C[C@H]2C)cc1,1.07 ± 0.066
17,COc1ccc2c3c([C@@H](CO)N(C[C@]33CCN(C)CC3)C(=O)NC3CCCCC3)n(C)c2c1,0.928 ± 0.12
18,CO[C@@H]1CN(C)C(=O)c2cc(NS(=O)(=O)c3cn(C)cn3)ccc2OC[C@@H](C)N(Cc2cccc(C(F)(F)F)c2)C[C@H]1C,1.14 ± 0.047
19,COc1ccc(S(=O)(=O)N(C)C[C@@H]2Oc3ncccc3C(=O)N([C@H](C)CO)C[C@@H]2C)cc1,0.964 ± 0.055
20,COc1ccc(NC(=O)N(C)C[C@@H]2Oc3ccc(NC(=O)CCN4CCOCC4)cc3C(=O)N([C@@H](C)CO)C[C@@H]2C)cc1,0.969 ± 0.17
21,O=C(C[C@@H]1CC[C@H]2[C@@H](COC[C@@H](O)CN2C(=O)c2ccccc2F)O1)NCc1ccc(Cl)c(Cl)c1,1.09 ± 0.036
22,C[C@@H]1CN([C@@H](C)CO)C(=O)c2cccc(NC(=O)NC3CCCCC3)c2O[C@@H]1CN(C)Cc1ccc(C(F)(F)F)cc1,0.813 ± 0.08
23,C[C@@H]1CN([C@H](C)CO)C(=O)c2ccccc2-c2ccccc2CO[C@H]1CN(C)C(=O)CCC(F)(F)F,0.966 ± 0.14

row,SMILES,viability index
1,Cc1noc(C)c1S(=O)(=O)N(C)C[C@@H]1OCCCC[C@@H](C)Oc2ccc(N(C)C)cc2C(=O)N([C@@H](C)CO)C[C@@H]1C,1.08 ± 0.068
2,CCCC(=O)N1CC[C@@]2(CC1)CN[C@H](CO)c1[nH]c3cc(OC)ccc3c21,0.974 ± 0.08
3,COc1ccc2c3c([nH]c2c1)[C@@H](CO)N(C[C@]31CCN(C)CC1)S(=O)(=O)c1ccccc1,1.04 ± 0.032
4,COc1ccccc1S(=O)(=O)N(C)C[C@H]1OCc2ccccc2-c2ccccc2C(=O)N([C@@H](C)CO)C[C@H]1C,1.07 ± 0.032
5,O=C(CN1CCOCC1)N1CC(=O)N2[C@H](CO)[C@@H](c3ccc(-c4cccc(F)c4)cc3)[C@H]2C1,1.03 ± 0.024
6,Cc1ccc(-c2ccccc2[C@H]2[C@@H](C#N)N(c3ncc(-c4ccccc4)s3)[C@@H]2CO)cc1,1.1 ± 0.075
7,O=C(CN1CCOCC1)N1CC[C@@H]2[C@H](CO)Nc3ccc(-c4ccccc4F)cc3[C@@H]21,1.04 ± 0.051
8,COc1ccc(NC(=O)N[C@H]2CC[C@H](CCNC(=O)CN3CCOCC3)O[C@H]2CO)cc1,1.02 ± 0.053
9,COc1ccc2c3c([nH]c2c1)[C@@H](CO)N(C)C[C@]31CCN(CC1)C(=O)c1ccccc1F,0.983 ± 0.086
10,C[C@@H]1CN([C@H](C)CO)S(=O)(=O)c2ccc(-c3ccc(F)cc3)cc2O[C@@H]1CN(C)Cc1ccccc1C(=O)O,0.96 ± 0.059
11,N#C[C@H]1N[C@H](CO)[C@@H]1c1ccc(C#Cc2ccccc2F)cc1,1.07 ± 0.076
12,CNC(=O)C[C@H]1CC[C@H]2[C@@H](COc3ccc(NS(=O)(=O)c4ccc(F)cc4)cc3C(=O)N2C)O1,0.914 ± 0.11
13,CO[C@H]1CN(C)C(=O)c2cc(NC(=O)c3cccc(F)c3)ccc2OC[C@@H](C)N(C)C[C@H]1C,0.992 ± 0.039
14,CNC[C@H]1OCCCC[C@H](C)Oc2ccc(N)cc2C(=O)N([C@@H](C)CO)C[C@@H]1C,1.07 ± 0.059
15,COc1ccccc1NC(=O)N1C[C@@H]2[C@H](c3ccccc31)[C@@H](CO)N2CC1CCOCC1,1.02 ± 0.036
16,C[C@@H]1CN([C@H](C)CO)C(=O)c2ccccc2-c2ccccc2CO[C@H]1CN(C)C(=O)[C@H](Cc1ccccc1)N(C)C,0.974 ± 0.066
17,COc1ccc(S(=O)(=O)Nc2ccc3c(c2)C(=O)N([C@H](C)CO)C[C@@H](C)[C@@H](CN(C)Cc2ccc(C(F)(F)F)cc2)OCCCC[C@@H](C)O3)cc1,1.01 ± 0.011
18,Cc1cccc(S(=O)(=O)N2CC[C@@H]3[C@H]2c2cc(Br)ccc2N(C)[C@H]3CO)c1,1.06 ± 0.017
19,C[C@H](NC(=O)C[C@H]1C=C[C@@H](NS(=O)(=O)c2cccc(F)c2)[C@@H](CO)O1)c1ccccc1,1 ± 0.088
20,CC(=O)N1[C@H](CO)[C@H](c2ccccc2)C12CN(S(=O)(=O)c1ccccc1)C2,1.11 ± 0.075
21,COc1ccc2c3c([C@@H](CO)N(CC4CC4)C[C@]33CN(C3)S(=O)(=O)c3cn(C)cn3)n(C)c2c1,0.91 ± 0.043
22,COCC(=O)Nc1ccc2c(c1)C(=O)N(C)[C@H]1CC[C@@H](CC(=O)NCCCN(C)C)O[C@H]1CO2,0.985 ± 0.028
23,COc1cccc(-c2ccc3c(c2)[C@H]2[C@H](CCN2C(=O)Cc2ccncc2)[C@H](CO)N3C)c1,1 ± 0.049
